The full ranking holds about 33,000 sequences; the median of “E-score (-0.5 to 0.5)” is about -0.012, and the highest 2% start at about 0.27. This is one part of the list.
What follows are sequences tested against T1, Vhr1 (UniProt P40522) (assay: PBM E-score (8-mer binding enrichment) (E-score (-0.5 to 0.5)); higher = stronger / more preferred TF binding; most listed sequences are background and not binding sites). Settings: protein concentration: 200 nM; construct: GST-full length.
T1 sequence: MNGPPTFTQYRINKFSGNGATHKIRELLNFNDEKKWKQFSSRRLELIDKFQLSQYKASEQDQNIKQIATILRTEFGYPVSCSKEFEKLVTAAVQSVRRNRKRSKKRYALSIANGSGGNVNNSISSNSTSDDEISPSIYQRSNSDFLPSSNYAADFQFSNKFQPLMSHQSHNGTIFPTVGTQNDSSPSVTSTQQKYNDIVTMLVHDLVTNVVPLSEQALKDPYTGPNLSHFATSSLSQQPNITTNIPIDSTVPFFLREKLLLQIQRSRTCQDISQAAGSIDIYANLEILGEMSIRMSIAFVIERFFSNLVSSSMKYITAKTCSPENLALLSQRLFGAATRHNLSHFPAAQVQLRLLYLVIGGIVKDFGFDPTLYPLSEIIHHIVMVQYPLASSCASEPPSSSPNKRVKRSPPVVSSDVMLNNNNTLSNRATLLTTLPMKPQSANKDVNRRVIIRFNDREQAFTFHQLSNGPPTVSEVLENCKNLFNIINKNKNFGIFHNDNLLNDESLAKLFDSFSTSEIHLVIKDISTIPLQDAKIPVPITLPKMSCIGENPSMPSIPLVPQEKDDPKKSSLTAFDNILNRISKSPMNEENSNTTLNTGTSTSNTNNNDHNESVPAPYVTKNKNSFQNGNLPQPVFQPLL
In short: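 Yeast transcription factors, full-length or as DNA-binding domains, were expressed with a GST tag using PURExpress in vitro transcription/translation. At about 100-200 nM they were applied to universal all-10-mer Agilent arrays, double-stranded by primer extension on fresh or once-stripped slides. Fluorescent anti-GST detected bound protein, and masliner normalised the scans. E-scores for ungapped eight-base words, pooled with reverse complements, came from the Universal PBM Analysis Suite.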

Sequence	PBM E-score
AAAGCCCA	-0.0818
AAGAATTA	-0.369
ACCCGGAA	0.0692
GTCTAGAA	-0.17
TATTTAGA	0.0897
CTGAAGGC	-0.33
CATCCCCG	0.107
CAAAATTC	0.0266
GCACCAGA	-0.0213
AGCCGCAA	0.0829
CCGCTTTC	-0.0995
ACAATAAT	-0.0245
CGACCTCG	0.0818
TCACGAGA	0.0719
CACTCCTG	0.116
ACTGAAGC	0.0356
GCGTTAGA	-0.216
AATTAACG	-0.0971
ATTACCTC	-0.0495
AACGCGAC	0.0199
ATGCAAAG	-0.202
GGGCTTCA	-0.00484
ATAGTCAG	0.333
CAAACGCG	-0.0187
ACGTTTAG	-0.151

Sequence	PBM E-score
GCCAATTA	-0.0432
CGTGTGTC	0.0761
ATGCTTCG	0.0045
ACAGGATC	0.047
CCCAATTA	0.0589
CCACATGA	0.115
GAAGTGAC	-0.122
CGAAGGGC	-0.158
CTCACGTC	0.0194
CGGGACTA	-0.168
AAAATATG	0.0742
GAAACGAA	-0.0153
GGCCTTAC	-0.148
CGGGCGGA	0.0619
AAAGATAA	-0.137
CTTATCAC	0.0322
GGATGCGA	-0.0759
AGGAAACT	-0.0671
ACCCTATA	0.115
ATTCCATC	0.086
CTACAGGA	-0.114
AAATGATC	-0.0287
CGGGCTCC	-0.184
CAGGACCG	-0.0695
AGGTAACT	0.0213

Sequence	PBM E-score
CCTCAAGA	-0.178
AAAGAGAA	-0.106
CCCTTTCC	-0.143
ACCAACAA	0.359
GTATGCCA	-0.118
ACTTTCCC	-0.0927
CTTGTTTA	-0.0807
AACGCGGT	0.0262
CAATCTTA	-0.11
ACCTTGCA	-0.147
CCGTGATC	0.0926
ACCAGCGG	0.00605
TCAACGAA	-0.131
ATGGCCAG	0.0351
AGCGAAAA	-0.167
ATAAGCTA	-0.0374
CGCCAGTC	0.103
ACTTGCAG	-0.22
CTTAACCC	-0.213
TTGAAAAA	-0.171
AAAGTCTT	-0.233
ACTCTACT	0.0544
ACGACGAA	0.125
AGAGAAGA	-0.148
CCCCCAGA	-0.347

Sequence	PBM E-score
ATTGCGTC	0.0326
CACCCAAC	0.167
AACTTATG	0.0751
CGTAATTC	-0.0942
AGTATGTC	0.168
GCCCAAAC	0.0733
GAAATATC	0.086
ACCTACTC	0.0487
AGCCGGCC	-0.0238
AAGTCAGA	0.0614
CACGGTCA	0.117
AAGCTTGA	-0.169
GCGTACAC	-0.0178
ATCGGATG	-0.132
ATTAGATC	0.09
GCAAGCTA	-0.152
CACCTACA	0.0983
AACTGACT	0.191
GATTCTGA	0.0911
ATCTTTAC	-0.063
CAATACTG	0.138
CTTGCAGC	-0.233
AACGTAAG	-0.173
AAGTAATA	-0.0578
CCAAGAAC	-0.187

Sequence	PBM E-score
AGTTCAAT	-0.149
CCGCCTAC	0.0023
ACCTAATG	-0.0403
GTCCACAA	-0.282
GCACACAC	0.178
CCCAAAAA	-0.14
TAATCGTA	0.114
TCCTGAGA	-0.158
AGAGGATC	-0.0834
ACGATCCG	0.133
ATTGCGTG	0.0365
ACCACAAG	-0.00474
CGGTCCGC	-0.0767
ATGTCGAG	-0.141
GGTCGAGA	0.145
TTAGCTAA	-0.14
ACTACAAA	0.143
ACGCGGTA	-0.0469
GTTCAGTA	0.0571
GCATATAC	-0.0649
CCGGTGCC	-0.194
ACCTAGCC	-0.207
AGGCTGTG	0.00113
ATGCCATC	0.147
AACCCGGA	0.143

Sequence	PBM E-score
AAAGATTT	-0.134
CATTCGCC	0.00808
CGTTATCC	-0.0844
CAACTCTG	0.0491
AACAGACC	0.0701
CTCGGATC	0.0579
CCTGACCG	-0.105
CACAACAC	0.181
CAGTCCGG	-0.0896
ATTGCTCC	0.0426
CTCCATTC	-0.0279
CACAGTAC	0.196
AAATCATT	-0.011
CTACGGTC	-0.2
CCCTTTTC	0.0427
AGAATCCC	0.0522
CTCGGGGC	0.0244
GGGCAAAA	0.0176
ACGGGCAT	-0.152
GCTAGAGC	-0.0223
GCAGGGAC	-0.154
GAACGCTA	-0.165
GTATAGCA	0.0458
CCTTCCAA	-0.135
CATAGGCG	-0.221

Sequence	PBM E-score
TACACCTA	0.0746
GTACGGAA	0.105
AGACTGTG	-0.0209
ATATCCGC	0.0132
AGTTGTTC	-0.0542
CAAAAAGG	-0.259
CTAATGTC	0.0475
TACCCGTA	0.0302
CTCCTACC	-0.16
ATATCGGA	0.0628
CAGCCTGG	0.0394
CGCGTAAC	-0.152
ATTAAAGC	-0.0475
TCACTCCA	0.0755
CAGCGCTC	-0.141
CGGTCAGA	0.0206
CTTCGCGA	0.0137
AAAAGGGT	-0.0575
TCGGATAA	-0.0382
TCTTATAA	-0.0642
ATCGCCGA	-0.0607
AGTCCCCA	0.0252

Reference: the supplement of paper PMC3334620
